# From PubChem BioAssay AID894 (National Center for Advancing Translational Sciences (NCATS), 2007)
# The whole screen tested about 150,000 compounds, of which about 6,500 (4.3%) were called active. Inconclusive means that the source gave no clear call. Such entries were picked first, then a sample of the others. Calls follow the shape of the dose curve; as a rule, active = well fitted inhibition curve with a large enough effect (not every such curve was filed as active); inconclusive = small, poorly fitted or top-dose-only effect, or another doubt; inactive = no such curve, though single readings can be large or run the other way. No potency is given beside an inconclusive call; the fits are too rough.
# Biological target: 15-hydroxyprostaglandin dehydrogenase [NAD(+)] (Homo sapiens) (UniProt P15428)
# Chain of UniProt P15428 (P15428 whole entry, looked up): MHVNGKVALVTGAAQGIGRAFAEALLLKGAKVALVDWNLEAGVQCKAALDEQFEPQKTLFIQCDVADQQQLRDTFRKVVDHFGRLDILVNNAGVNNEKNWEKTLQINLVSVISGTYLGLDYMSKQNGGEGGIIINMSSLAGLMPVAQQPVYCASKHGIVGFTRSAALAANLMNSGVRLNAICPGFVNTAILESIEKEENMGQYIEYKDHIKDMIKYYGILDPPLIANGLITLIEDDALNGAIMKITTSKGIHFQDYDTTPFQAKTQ
# Experiment: qHTS Assay for Inhibitors of HPGD (15-Hydroxyprostaglandin Dehydrogenase)
# Conditions: purified HPGD, NADH fluorescence kinetic, PGE2 substrate; activity change, negative = inhibition: stronger effect = lower value
# Procedure, shortened: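 20 nM HPGD preincubated 15 min at room temperature with compound in 50 mM Tris-HCl pH 8, 0.01% Tween 20. Started with 1 mM NAD+ and 30 uM prostaglandin E2; NADH fluorescence (360/450 nm) read 5 times over 30-s intervals, last minus first.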
# % is scaled to controls: 0 for no effect and ±100 for the full control effect; potency is read from the fitted curve at half-maximal effect; tags tell the direction and shape of the fitted curve.
Structure (SMILES),Potency,"activity change, negative = inhibition"
CCCn1c(C)nc2c(c1=O)c1nc3ccccc3nc1n2CCC1=CCCCC1,"inconclusive [inhibitor, partial curve]",
O=C(N/N=C/c1ccc(F)cc1)c1sccc1OCc1ccc(F)cc1,,inactive: -18.5%
CC(C)c1ccc(OCC(=O)Nc2cccc3c2CCCC3)cc1,"inconclusive [inhibitor, partial curve]",
CCOC(=O)C1CCCN(C(=O)c2ccco2)C1 (configuration not stated),,inactive: -2.57%
N#Cc1ccc(Oc2ccc(-c3cnc4ccccc4n3)cc2)cc1C#N,"inconclusive [inhibitor, partial curve]",
C=CCn1c(Cc2nc3ccccc3[nH]2)n[nH]c1=S,"inconclusive [inhibitor, single point]",
Cc1ccc2cc(C#N)c(NCCCNC(=O)C3CCCO3)nc2c1 (configuration not stated),"inconclusive [inhibitor, partial curve]",
Cc1ccccc1N=C/C=C1\N(C)c2ccccc2C1(C)C,,inactive: -15.7%
COc1ccc(-c2nc(C#N)c(N3CCC(C(N)=O)CC3)o2)cc1OC,"inconclusive [inhibitor, partial curve]",
O=C(CC(=O)c1ccncc1)c1ccccc1,active: 3.55 µM,
CC1=CC2=NC(=O)/C(=C\c3cc(C)n(-c4cccc(Cl)c4)c3C)C(=N)N2O1,"inconclusive [inhibitor, partial curve]",
COc1ccc(Cn2nnnc2C(c2cc3ccc(OC)cc3[nH]c2=O)N2CCC(C)CC2)cc1 (configuration not stated),,inactive: -7.88%
CCn1c2ccccc2c2cc(NC(=O)c3ccc(Br)o3)ccc21,active: 4.47 µM,
COc1ccccc1NC(=O)Cn1nc(C(F)(F)F)c2c1CCCC2,,inactive: -13.2%
COCCCNC(=S)N1CCN(c2ccc([N+](=O)[O-])cc2)CC1,,inactive: -7.89%
O=C1OCCN1C(=O)[C@H]1[C@H](c2ccccc2)C(c2ccc(F)cc2)=NN1c1ccc(Br)cc1,"inconclusive [inhibitor, partial curve]",
CC1CCc2sc(C(=O)Nc3nnc(SCc4ccc(F)cc4)s3)cc2C1 (configuration not stated),"inconclusive [inhibitor, partial curve]",
O=C(CSc1cccc2cccnc12)N1CCCC1,"inconclusive [inhibitor, partial curve]",
Cc1onc(-c2ccccc2Cl)c1C(=O)NC(=S)NCCc1ccccc1,,inactive: -8.23%
C/C(=N\NC(=O)c1ccncc1)c1cc2ccccc2oc1=O,"inconclusive [inhibitor, single point]",
Cc1onc(-c2c(F)cccc2Cl)c1C(=O)OCn1nnc2ccccc2c1=O,active: 12.6 µM,
CCNc1ncc2nc(-c3ccc(OC)cc3)c(=O)n(Cc3cccc(OC)c3)c2n1,"inconclusive [inhibitor, single point]",
Fc1ccc(-n2c(-c3ccc4c(c3)OCO4)n[nH]c2=S)cc1Cl,active: 10 µM,
Fc1ccc(CSc2nc3ccccc3[nH]2)c2ccccc12,"inconclusive [inhibitor, partial curve]",

Structure (SMILES),Potency,"activity change, negative = inhibition"
Clc1ccc(CO/N=C/c2c(-c3ccccc3)nc3n2CCS3)c(Cl)c1,"inconclusive [inhibitor, partial curve]",
COc1ccc(/C=N/NC(=O)c2nc(Cl)c(Cl)c(N)c2Cl)cc1COc1ccc(F)cc1F,"inconclusive [inhibitor, partial curve]",
COC(=O)CCc1nc2ccccc2[nH]c1=O,"inconclusive [inhibitor, partial curve]",
CCOc1ccc(S(=O)(=O)N2CCCC2)cc1,,inactive: -10.7%
CCN(CC)C(=O)CSc1nc(N)c(C(=O)Nc2ccc(OC)cc2)s1,,inactive: -19.2%
O=C(O)CCC/C=C\CC1C2CCC(O2)C1CNNC(=O)Nc1ccccc1 (configuration not stated),,inactive: -9.07%
CC1Oc2ccccc2C=C1/C=N/NC(=O)c1ccccc1 (configuration not stated),"inconclusive [inhibitor, partial curve]",
Cc1ccc2c(c1)NCC(C(=O)NC1CCCCC1)O2 (configuration not stated),active: 12.6 µM,
Cc1noc2nc(-c3cccs3)cc(-c3nnc4n3CCCCC4)c12,"inconclusive [inhibitor, partial curve]",
NS(=O)(=O)c1ccc(NC(=S)N2CCN(c3cccc(Cl)c3)CC2)cc1,active: 25.1 µM,
c1csc(CNc2ncncc2-c2ccc3c(c2)OCO3)c1,"inconclusive [inhibitor, partial curve, poor fit]",
CCOc1ccc(-c2nnc(-c3snc(-c4ccc(F)cc4)c3N=CN(C)C)o2)cc1,"inconclusive [inhibitor, partial curve]",
CCc1ccc(Cn2nnc(C(=O)Nc3ccc(OC)cc3OC)c2N)cc1,"inconclusive [inhibitor, partial curve]",
CN(CCC#N)CC(=O)Nc1ccc(NC(=O)CN(C)CCC#N)cc1,"inconclusive [inhibitor, partial curve]",
CCCC(NC(=O)c1ccco1)c1nc2ccccc2[nH]1 (configuration not stated),,inactive: -3.61%
CCc1nnc(NS(=O)(=O)c2ccc(N/C=C/C(=O)c3ccc(C)cc3)cc2)s1,active: 17.8 µM,
CCCCC(=O)Nc1ccc2c(c1)OCCO2,active: 25.1 µM,
Cc1nnc(SCCn2c(N3CCCCC3)nc3c2c(=O)[nH]c(=O)n3C)s1,,inactive: -3.39%
CC1(C)Cc2c(sc3nc(SCC(=O)N4CCOCC4)nc(N)c23)CO1,"inconclusive [inhibitor, partial curve]",
COC(=O)C1=NN(c2ccc(Cl)cc2)C2C(=O)N(c3ccccc3OC)C(=O)C12 (configuration not stated),"inconclusive [inhibitor, single point]",
CC(=O)c1cc(F)c(N2CCN(c3ccc([N+](=O)[O-])cc3F)CC2)cc1C,,inactive: -20.2%
CC1(C)CC(c2nc(-c3ccc(Cl)cc3)cs2)CCS1 (configuration not stated),,inactive: -13.5%
COc1ccc(NC(=O)c2nc3nccc(C)n3n2)cn1,,inactive: -12.1%
